± gives the standard deviation of the averaged measurements. The full ranking holds about 33,000 sequences; the median of “E-score (dimensionless, -0.5 to 0.5)” is about -0.049, and the highest 2% start at about 0.37. The list shows a part of the results.
Tested on: T1, PmTbr T-box DNA-binding domain (GST fusion)
T1 sequence: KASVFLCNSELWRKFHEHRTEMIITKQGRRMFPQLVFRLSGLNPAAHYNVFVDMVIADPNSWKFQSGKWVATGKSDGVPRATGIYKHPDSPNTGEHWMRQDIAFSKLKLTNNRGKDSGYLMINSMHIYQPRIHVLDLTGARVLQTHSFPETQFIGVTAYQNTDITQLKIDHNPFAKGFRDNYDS
Assay: PBM E-score of 8-mer (E-score (dimensionless, -0.5 to 0.5)); Tbr is Tbrain of the sea star Patiria miniata (Pm) or the sea urchin Strongylocentrotus purpuratus (Sp); higher = stronger binding preference; most listed sequences are background and not binding sites
Conditions: the construct has about 5 more residues each side
How it was run: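 GST-fused Tbr T-box DNA-binding domains (the whole T-box plus about five flanking residues) were expressed in BL21 E. coli at 20 °C and purified by glutathione affinity chromatography. Universal Agilent oligonucleotide arrays were made double-stranded by primer extension, incubated with 200 nM protein in PBS (pH 7.5), then scanned and quantified. Every ungapped 8-mer was scored from probe intensities. The Universal PBM Analysis Suite gave each word an enrichment E-score, averaged over duplicate arrays.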

Sequence	PBM E-score of 8-mer
GATGCAAA	-0.0496 ± 0.062
CGAGCTAA	0.216 ± 0.018
GCTAATGA	0.0319 ± 0.089
AGGCCTAT	-0.23 ± 0.082
GCTGGAGA	-0.144 ± 0.034
AACATCCT	-0.0822 ± 0.039
GATGCCGA	-0.0789 ± 0.041
GGCGTGAC	0.386 ± 0.017
ACACTTGC	0.407 ± 0.013
GTATAACA	0.0166 ± 0.071
AGACGGCT	-0.0381 ± 0.046
GCCGGGTA	0.0619 ± 0.041
CGTCCGGC	-0.224 ± 0.068
AAACCGGT	-0.0406 ± 0.022
CCGGTTCA	-0.0841 ± 0.025
GCGGTCCA	-0.043 ± 0.019
GAGGTCAA	-0.295 ± 0.0062
GAAGAGGC	-0.0489 ± 0.055
ATCCAACC	-0.0271 ± 0.073
AGCGTAGG	-0.0926 ± 0.0022
CATCTAGA	-0.275 ± 0.013
ACTTTTAG	0.0831 ± 0.084
TGTTAACA	0.38 ± 0.0039
ACGTGTCG	0.385 ± 0.022
GATTCGGA	-0.1891 ± 0.0013

Sequence	PBM E-score of 8-mer
GCTAGGAC	-0.0839 ± 0.039
TCCCTCAA	-0.203 ± 0.016
GGATATAA	-0.194 ± 0.03
CCTACCCA	-0.133 ± 0.026
ATGGTCGC	0.066 ± 0.016
CATTGGCC	-0.0667 ± 0.0014
ATACTCAG	-0.225 ± 0.015
CCATGATA	-0.174 ± 0.047
AGAGACCT	-0.27 ± 0.031
GTGCACCA	-0.1545 ± 0.0015
ACATAAGC	-0.062 ± 0.015
ACACACAT	0.288 ± 0.013
GACTCTCA	0.0229 ± 0.0083
GCCTCGGA	-0.0576 ± 0.022
CAGTTGAG	0.0425 ± 0.022
ACACAGCC	-0.173 ± 0.01
GCTGCGAA	0.296 ± 0.0077
CGACACAA	0.212 ± 0.064
AGATCACT	0.0336 ± 0.011
GGTTCTTA	-0.0403 ± 0.11
TACGTCTA	-0.309 ± 0.026
GGCCGGGA	-0.284 ± 0.02
CAGATAGC	0.111 ± 0.0016
AATCACAT	0.182 ± 0.076
AAGTACTT	-0.00166 ± 0.016

Sequence	PBM E-score of 8-mer
AGGTCGTC	-0.0167 ± 0.06
AAGCGTGG	0.0213 ± 0.089
AGAACGCT	-0.0145 ± 0.021
AAGAAATT	-0.116 ± 0.13
GACCTACA	-0.125 ± 0.019
CCAATACG	-0.0971 ± 0.048
GACACGGA	0.118 ± 0.012
TTCCAGAA	-0.234 ± 0.033
CTTACCCA	-0.0254 ± 0.00088
GAGATACA	-0.0338 ± 0.0033
AGGATCAG	-0.201 ± 0.022
CTGCAATA	-0.204 ± 0.032
ACTTCAGC	-0.0973 ± 0.03
GATAGGAA	-0.201 ± 0.044
GGATTACC	-0.179 ± 0.019
TGTGACAA	0.42 ± 0.028
GTTTCCTA	-0.149 ± 0.068
ACAGCAAC	0.00556 ± 0.07
ATCCTAAG	-0.0624 ± 0.055
AAAACGGA	-0.0616 ± 0.0082
CATTGTAC	-0.241 ± 0.04
CGTATCAC	0.209 ± 0.024
AAAGACGT	-0.108 ± 0.008
CATGGTAG	-0.144 ± 0.062
GATACAAA	-0.169 ± 0.032

Sequence	PBM E-score of 8-mer
CAGCGGGG	0.056 ± 0.072
ATTATCGA	0.0846 ± 0.05
GGGGTCGA	0.0145 ± 0.026
GACTGAGC	-0.198 ± 0.013
CATCATAC	-0.119 ± 0.039
ATATCGAG	-0.157 ± 0.02
ACGAAGCA	-0.135 ± 0.0054
AATGCTCT	-0.194 ± 0.053
CCCTCCTA	-0.0631 ± 0.076
GCAAATAC	-0.064 ± 0.092
GCCTAGTA	-0.0564 ± 0.01
AGAGTTAC	-0.172 ± 0.034
CATTATAA	-0.112 ± 0.073
GATGGAAC	-0.0526 ± 0.053
AATGTTTG	-0.177 ± 0.022
ACAGTTGG	0.192 ± 0.02
AAGCATAG	-0.307 ± 0.013
TAGACAGA	-0.0581 ± 0.028
ACCGATTG	-0.0556 ± 0.022
AACATGCT	-0.192 ± 0.038
GTAACGAA	-0.0904 ± 0.066
CAATATTG	0.0273 ± 0.1
AGATTCAA	-0.153 ± 0.007
AATTGTCA	0.339 ± 0.015
CGGGGCCC	-0.2092 ± 0.00056

Sequence	PBM E-score of 8-mer
CCCATACG	-0.116 ± 0.078
CGTATGCA	-0.0979 ± 0.032
AAAAGAGT	-0.157 ± 0.041
AGAGAGGC	-0.129 ± 0.017
CAGCCAGA	-0.0394 ± 0.019
GAAAGCTC	-0.121 ± 0.017
GAGGGTCA	-0.08798 ± 0.0008
GTACATGA	-0.0366 ± 0.016
CACCACGC	0.176 ± 0.08
CAACGAGG	-0.089 ± 0.031
CATAAGCC	-0.275 ± 0.051
CTGGCATA	0.0404 ± 0.058
TCTAGTCA	-0.24 ± 0.039
CCGCGGTA	-0.134 ± 0.0082
CAACGAGA	-0.0477 ± 0.027
GCTCTTAC	-0.271 ± 0.078
TGCTCAAA	-0.00795 ± 0.036
CGGTCCTC	-0.186 ± 0.054
CAGGTGAC	0.4485 ± 0.0027
GGTCATGA	-0.329 ± 0.011
CGAAACTA	0.0184 ± 0.0051
CCTCGCGC	0.337 ± 0.024
AGTGCAAT	0.0547 ± 0.033
ATCTAGAG	0.0499 ± 0.037
ATCTATGA	-0.158 ± 0.024

Sequence	PBM E-score of 8-mer
AGGCCCCG	-0.298 ± 0.012
ATACCTGA	-0.0897 ± 0.035
CTCATAAA	-0.145 ± 0.01
CCTAGACA	-0.0098 ± 0.026
CGATTTGC	0.184 ± 0.057
AGAGCTCA	-0.322 ± 0.044
ACCTCATA	0.0396 ± 0.012
ATGTGTAG	0.148 ± 0.05
CTCGTGTA	0.0334 ± 0.019
GCGATCGC	0.174 ± 0.048
GGAGGTAA	-0.034 ± 0.12
GGCTTGAC	-0.102 ± 0.016
ACAATGAA	0.0822 ± 0.054
AGCCGGTA	-0.175 ± 0.042
CGCTGTGA	0.229 ± 0.0037
CCCCCCAG	-0.169 ± 0.051
GATTACAA	-0.0245 ± 0.06
GGGACAGA	-0.0601 ± 0.073
ATTGGTCG	-0.0157 ± 0.093
TCAAGCGA	-0.053 ± 0.061
CGCGACGC	0.239 ± 0.017
CGTACTCA	-0.0458 ± 0.053
CCGGCGCA	-0.112 ± 0.04
CAAGACAC	0.223 ± 0.027
CTTGCAAG	0.341 ± 0.067

Sequence	PBM E-score of 8-mer
ATAGCGTA	-0.0291 ± 0.031
ATATGTTA	-0.147 ± 0.063
TACCCTGA	-0.104 ± 0.07
CTGACGAC	-0.00658 ± 0.017
ACAGCATC	-0.149 ± 0.087
AATGAGGA	-0.349 ± 0.061
CCAATAGC	0.0682 ± 0.031
CTGGACAG	-0.0594 ± 0.021
ATTAATTG	-0.0107 ± 0.016
ACGTTCCC	-0.118 ± 0.035
AACTTGTG	0.171 ± 0.021
AGAATCTA	0.151 ± 0.0012
CGTCCAAA	-0.157 ± 0.0094
ATGGGAAG	-0.187 ± 0.0021
AAACGATA	0.024 ± 0.047
ATTTTAGG	-0.17 ± 0.064
CACCGACA	0.274 ± 0.027
AGAGTGAG	0.123 ± 0.022
CGGAGGAC	-0.28 ± 0.012
AACGGGTA	0.105 ± 0.042
AAAAGTAG	-0.176 ± 0.048
ACTTGTCA	0.4044 ± 0.0039
